Measurements: article PMC9911399, “Two distinct binding modes provide the RNA-binding protein RbFox with extraordinary sequence specificity”
Changes are numbered by the printed parent chain; changes in the protein carry UniProt numbers. This is one part of the list.

T1: RBFOX1 RRM (Homo sapiens, UniProt Q9NWB1 109-208)
T1 sequence: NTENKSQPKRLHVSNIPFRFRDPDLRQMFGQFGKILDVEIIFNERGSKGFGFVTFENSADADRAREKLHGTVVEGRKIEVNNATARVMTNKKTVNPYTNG

B1: AAGGCGA (DNA:RNA)
RNA: GGGAGACCGGAAUUCAGAUUGUCCAAGGCGAUUAAAUCCCGUCGUAGCCACCA
DNA 1: CAATCTGAATTCCGGTCTCCC
DNA 2: TGGTGGCTACGACGGGATT
B2: ACGAGUA (DNA:RNA)
RNA: B1 RNA with A26C, G28A, C29G, G30U
DNA 1: CAATCTGAATTCCGGTCTCCC
DNA 2: TGGTGGCTACGACGGGATT
B3: GCCAGGG (DNA:RNA)
RNA: B1 RNA with A25G, A26C, G27C, G28A, C29G, A31G
DNA 1: CAATCTGAATTCCGGTCTCCC
DNA 2: TGGTGGCTACGACGGGATT
B4: UGGGAGC (DNA:RNA)
RNA: B1 RNA with A25U, A26G, C29A, A31C
DNA 1: CAATCTGAATTCCGGTCTCCC
DNA 2: TGGTGGCTACGACGGGATT
B5: UUAGAAC (DNA:RNA)
RNA: B1 RNA with A25U, A26U, G27A, C29A, G30A, A31C
DNA 1: CAATCTGAATTCCGGTCTCCC
DNA 2: TGGTGGCTACGACGGGATT
B6: CUAACAU (DNA:RNA)
RNA: B1 RNA with A25C, A26U, G27A, G28A, G30A, A31U
DNA 1: CAATCTGAATTCCGGTCTCCC
DNA 2: TGGTGGCTACGACGGGATT
B7: GCCGCUC (DNA:RNA)
RNA: B1 RNA with A25G, A26C, G27C, G30U, A31C
DNA 1: CAATCTGAATTCCGGTCTCCC
DNA 2: TGGTGGCTACGACGGGATT
B8: GGGAUUA (DNA:RNA)
RNA: B1 RNA with A25G, A26G, G28A, C29U, G30U
DNA 1: CAATCTGAATTCCGGTCTCCC
DNA 2: TGGTGGCTACGACGGGATT
B9: GAGCCCU (DNA:RNA)
RNA: B1 RNA with A25G, G28C, G30C, A31U
DNA 1: CAATCTGAATTCCGGTCTCCC
DNA 2: TGGTGGCTACGACGGGATT
B10: GCCAUGA (DNA:RNA)
RNA: B1 RNA with A25G, A26C, G27C, G28A, C29U
DNA 1: CAATCTGAATTCCGGTCTCCC
DNA 2: TGGTGGCTACGACGGGATT
B11: AGGACUC (DNA:RNA)
RNA: B1 RNA with A26G, G28A, G30U, A31C
DNA 1: CAATCTGAATTCCGGTCTCCC
DNA 2: TGGTGGCTACGACGGGATT
B12: UUCCAUG (DNA:RNA)
RNA: GGGAGACCGGAAUUCAGAUUGUCCUUCCAUGUUAAAUCCCGUCGUAGCCACCA
DNA 1: CAATCTGAATTCCGGTCTCCC
DNA 2: TGGTGGCTACGACGGGATT
B13: ACGCAUC (DNA:RNA)
RNA: B12 RNA with U25A, U26C, C27G, G31C
DNA 1: CAATCTGAATTCCGGTCTCCC
DNA 2: TGGTGGCTACGACGGGATT
B14: CGGUUCG (DNA:RNA)
RNA: B1 RNA with A25C, A26G, G28U, C29U, G30C, A31G
DNA 1: CAATCTGAATTCCGGTCTCCC
DNA 2: TGGTGGCTACGACGGGATT
B15: ACCCUCG (DNA:RNA)
RNA: B12 RNA with U25A, U26C, A29U, U30C
DNA 1: CAATCTGAATTCCGGTCTCCC
DNA 2: TGGTGGCTACGACGGGATT
B16: GCUGAGG (DNA:RNA)
RNA: B1 RNA with A25G, A26C, G27U, C29A, A31G
DNA 1: CAATCTGAATTCCGGTCTCCC
DNA 2: TGGTGGCTACGACGGGATT
B17: UCACGCC (DNA:RNA)
RNA: B12 RNA with U26C, C27A, A29G, U30C, G31C
DNA 1: CAATCTGAATTCCGGTCTCCC
DNA 2: TGGTGGCTACGACGGGATT
B18: GACCCCA (DNA:RNA)
RNA: B1 RNA with A25G, G27C, G28C, G30C
DNA 1: CAATCTGAATTCCGGTCTCCC
DNA 2: TGGTGGCTACGACGGGATT
B19: AGUUAAC (DNA:RNA)
RNA: B1 RNA with A26G, G27U, G28U, C29A, G30A, A31C
DNA 1: CAATCTGAATTCCGGTCTCCC
DNA 2: TGGTGGCTACGACGGGATT
B20: CUAUCCA (DNA:RNA)
RNA: B1 RNA with A25C, A26U, G27A, G28U, G30C
DNA 1: CAATCTGAATTCCGGTCTCCC
DNA 2: TGGTGGCTACGACGGGATT
B21: AGCUCCU (DNA:RNA)
RNA: B1 RNA with A26G, G27C, G28U, G30C, A31U
DNA 1: CAATCTGAATTCCGGTCTCCC
DNA 2: TGGTGGCTACGACGGGATT
B22: UGCUUCU (DNA:RNA)
RNA: B12 RNA with U26G, C28U, A29U, U30C, G31U
DNA 1: CAATCTGAATTCCGGTCTCCC
DNA 2: TGGTGGCTACGACGGGATT
B23: GUGGACG (DNA:RNA)
RNA: B12 RNA with U25G, C27G, C28G, U30C
DNA 1: CAATCTGAATTCCGGTCTCCC
DNA 2: TGGTGGCTACGACGGGATT
B24: UAACUUC (DNA:RNA)
RNA: B12 RNA with U26A, C27A, A29U, G31C
DNA 1: CAATCTGAATTCCGGTCTCCC
DNA 2: TGGTGGCTACGACGGGATT
B25: UCCAUAU (DNA:RNA)
RNA: B12 RNA with U26C, C28A, A29U, U30A, G31U
DNA 1: CAATCTGAATTCCGGTCTCCC
DNA 2: TGGTGGCTACGACGGGATT
B26: GUUUAUA (DNA:RNA)
RNA: B12 RNA with U25G, C27U, C28U, G31A
DNA 1: CAATCTGAATTCCGGTCTCCC
DNA 2: TGGTGGCTACGACGGGATT
B27: UUCCUUU (DNA:RNA)
RNA: B12 RNA with A29U, G31U
DNA 1: CAATCTGAATTCCGGTCTCCC
DNA 2: TGGTGGCTACGACGGGATT
B28: GGGAUCU (DNA:RNA)
RNA: B1 RNA with A25G, A26G, G28A, C29U, G30C, A31U
DNA 1: CAATCTGAATTCCGGTCTCCC
DNA 2: TGGTGGCTACGACGGGATT
B29: CUGAAUC (DNA:RNA)
RNA: B12 RNA with U25C, C27G, C28A, G31C
DNA 1: CAATCTGAATTCCGGTCTCCC
DNA 2: TGGTGGCTACGACGGGATT
B30: CACAUGU (DNA:RNA)
RNA: B1 RNA with A25C, G27C, G28A, C29U, A31U
DNA 1: CAATCTGAATTCCGGTCTCCC
DNA 2: TGGTGGCTACGACGGGATT
B31: UGCAGUU (DNA:RNA)
RNA: B12 RNA with U26G, C28A, A29G, G31U
DNA 1: CAATCTGAATTCCGGTCTCCC
DNA 2: TGGTGGCTACGACGGGATT

target: T1, RBFOX1 RRM; assay: EMSA; HiTS-Eq, 1 nM pool, 10 min; buffer printed only for the single-RNA assays: 10 mM Tris pH 7.5, 150 mM NaCl, 3.4 mM EDTA, 0.001% NP-40, 30 C; settings: tags: His6 N-terminal (pET28a); label: 5' 32P
Procedure, shortened: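 Relative association constants, normalised to the cognate motif, were derived by comparing read counts of each RNA species with those of the control reaction. The RNA sequenced was the free fraction, separated by 8% native PAGE after a 10 min equilibration in 50 µL of 1 nM 5′-radiolabelled RNA (7 randomized nucleotides) with increasing concentrations of purified wild-type or mutant RbFox RRM.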

Row | Binder | binding signal
1 | B1 | 0.00728 KA relative to UGCAUGU
2 | B2 | 0.00569 KA relative to UGCAUGU
3 | B3 | 0.0174 KA relative to UGCAUGU
4 | B4 | 0.0309 KA relative to UGCAUGU
5 | B5 | 0.012 KA relative to UGCAUGU
6 | B6 | 0.000928 KA relative to UGCAUGU
7 | B7 | 0.0146 KA relative to UGCAUGU
8 | B8 | 0.0242 KA relative to UGCAUGU
9 | B9 | 0.00817 KA relative to UGCAUGU
10 | B10 | 0.0124 KA relative to UGCAUGU
11 | B11 | 0.0201 KA relative to UGCAUGU
12 | B12 | 0.00664 KA relative to UGCAUGU
13 | B13 | 0.00881 KA relative to UGCAUGU
14 | B14 | 0.0103 KA relative to UGCAUGU
15 | B15 | 0.00252 KA relative to UGCAUGU
16 | B16 | 0.0179 KA relative to UGCAUGU

Row | Binder | binding signal
17 | B17 | 0.00712 KA relative to UGCAUGU
18 | B18 | 0.000227 KA relative to UGCAUGU
19 | B19 | 0.00286 KA relative to UGCAUGU
20 | B20 | 0.00102 KA relative to UGCAUGU
21 | B21 | 0.00379 KA relative to UGCAUGU
22 | B22 | 0.0153 KA relative to UGCAUGU
23 | B23 | 0.0135 KA relative to UGCAUGU
24 | B24 | 0.0101 KA relative to UGCAUGU
25 | B25 | 0.00233 KA relative to UGCAUGU
26 | B26 | 0.00641 KA relative to UGCAUGU
27 | B27 | 0.00799 KA relative to UGCAUGU
28 | B28 | 0.0381 KA relative to UGCAUGU
29 | B29 | 0.00905 KA relative to UGCAUGU
30 | B30 | 0.00636 KA relative to UGCAUGU
31 | B31 | 0.0159 KA relative to UGCAUGU
